Assay results: PubChem BioAssay AID485341 (National Center for Advancing Translational Sciences (NCATS), 2010)
Several values for one entry are separate records, joined by “and”; a condition that tells them apart may be missing. Identical values can stand only once. The campaign covered roughly 330,000 compounds. About 1,700 (0.52%) were called active. The inconclusive results got no clear call from the source; some entries with a clear call stand among them for comparison. Calls come from the whole dose curve; as a rule, active = well fitted inhibition curve with a large enough effect; inconclusive = small, poorly fitted or top-dose-only effect; inactive = no such curve, though single readings can be large or run the other way. Where the call is inconclusive, the potency comes from a doubtful curve fit. A structure can be active in one record and inactive in another.

What follows are molecules tested against Beta-lactamase (Escherichia coli (strain K12)) (UniProt P00811) (assay: qHTS Inhibitors of AmpC Beta-Lactamase (assay without detergent)). Conditions: AmpC nitrocefin hydrolysis, absorbance 480 nm, 0.0001% Triton; activity change, negative = inhibition: at 57.1 µM (top of the series) unless noted.
Sequence of UniProt P00811 (P00811 whole entry, looked up): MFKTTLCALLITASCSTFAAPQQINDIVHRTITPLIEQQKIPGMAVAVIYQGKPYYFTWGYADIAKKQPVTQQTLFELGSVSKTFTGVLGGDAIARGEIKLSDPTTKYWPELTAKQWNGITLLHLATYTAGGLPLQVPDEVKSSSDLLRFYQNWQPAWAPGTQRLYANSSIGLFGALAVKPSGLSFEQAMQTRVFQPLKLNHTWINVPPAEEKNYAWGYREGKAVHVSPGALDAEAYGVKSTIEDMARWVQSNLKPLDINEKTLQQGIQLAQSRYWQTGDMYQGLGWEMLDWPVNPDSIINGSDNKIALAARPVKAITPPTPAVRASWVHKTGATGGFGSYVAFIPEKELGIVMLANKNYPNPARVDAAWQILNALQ
In short: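 20 mM phosphate pH 7.0 + 0.01% (detergent screen) or 0.0001% Triton X-100; 5.3 nM AmpC reagent; cpd preinc 15 min RT; nitrocefin (800 uM stock) to start; A480 q20 s × 4 min; Activity was normalised to no-enzyme and no-compound control wells.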
Note: nearly all actives have a fitted effect of over 20% in size.
Potency is the fitted concentration of half-maximal effect; tags give direction and shape of the fitted curve.
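Throughout, for activity change, negative = inhibition: plate controls were no compound for no effect and no enzyme for full effect.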

| SMILES | activity change, negative = inhibition | Potency |
| --- | --- | --- |
| COc1ccc(C(=O)Nc2nccs2)cc1[N+](=O)[O-] | inactive: -9.7% | – |
| Cc1ccc(CN2C3=NCCCN3c3ccccc32)cc1 | inactive: 25.9% | – |
| COc1ccccc1C(=O)NC(=O)COC(=O)c1ncc(Cl)c(Cl)c1Cl | – | inconclusive: 39.8 µM [inhibitor, single point] |
| Cc1noc(C)c1Cc1ccc(O)cc1 | – | inconclusive: 6.31 µM [inhibitor, single point] |
| Oc1nc(Nc2ccc(Cl)cc2Cl)sc1/C=C1\C=Nc2ccccc21 | – | inconclusive: 4.47 µM [inhibitor, full curve] |
| CCOC(=O)CSc1nc2nc(C)cc(C)n2n1 | – | active: 10 µM |
| CC(C)c1ccc(NC(=O)C(=O)c2cn(CC(=O)N3CCCCC3)c3ccccc23)cc1 | – | inconclusive: 7.94 µM [inhibitor, full curve, poor fit] |
| C=CC[C@@H](CC(=O)N[C@H](CO)Cc1ccccc1)C(=O)N[C@@H](COC(=O)[C@@H](CC=C)CC(=O)OC(C)(C)C)Cc1ccccc1 | inactive: 227% | – |
| O=C1C(Cl)=CC(=Nc2ccc(O)cc2)C=C1Cl | – | active: 28.2 µM |
| CC(C)N(CC(=O)Nc1ccc(Cl)cc1C(F)(F)F)C(=O)CCl | inactive: -15.6% | – |
| CCOc1ccc(Br)cc1S(=O)(=O)Nc1cccc(S(=O)(=O)N(C)c2ccccc2)c1 | inactive: -0.219% | – |
| Cc1ccc(C(=O)CSc2nnc(C3CC3)n2C2CC2)s1 | inactive: -11.2% | – |
| CCc1cc(=O)oc2cc(C)cc(O)c12 | inactive: -2.36% | – |
| O=C1NC(=O)N(c2ccccc2)C(=O)/C1=C\c1ccccc1[N+](=O)[O-] | inactive: -8.29% | – |
| Cc1cccc(NC(=O)CSCC(=O)Nc2ccc(S(=O)(=O)N3CCCC3)cc2)c1 | – | inconclusive: 35.5 µM [inhibitor, single point] |
| O=C(O)/C=C/C(=O)Nc1ccc(O)cc1 | inactive: -18.2% | – |
| COc1ccc(Cc2nn3c(Cn4nnc5ccccc54)nnc3s2)cc1 | – | inconclusive: 2.51 µM [inhibitor, partial curve, poor fit] |
| N[C@@H](Cc1cc(I)c(Oc2ccc(O)c(I)c2)c(I)c1)C(=O)O | – | active: 8.91 µM and active: 3.16 µM |
| CCN(Cc1ccccc1)C(=O)c1cccc(S(=O)(=O)N2CCN(Cc3ccccc3)CC2)c1 | – | inconclusive: 39.8 µM [inhibitor, single point] |
| COc1ccc(C)cc1S(=O)(=O)N(CC(=O)Nc1cccc([N+](=O)[O-])c1)c1ccc(C)c(C)c1 | – | inconclusive: 4.47 µM [inhibitor, full curve, poor fit] |
| O=C(NNc1nc2ccc(Cl)cc2s1)c1cc(-c2cccs2)nc2ccccc12 | – | inconclusive: 1.78 µM [inhibitor, partial curve, poor fit] |
| NS(=O)(=O)c1ccc(NC(=O)COC(=O)c2cn(-c3ccccc3)nc2-c2ccc(F)cc2)cc1 | – | active: 12.6 µM |

| SMILES | activity change, negative = inhibition | Potency |
| --- | --- | --- |
| Cc1ccc(NC(=O)CSCC(=O)Nc2cc(C(F)(F)F)ccc2N2CCOCC2)cc1 | – | inconclusive: 39.8 µM [inhibitor, single point] |
| O=C(CNC(=O)c1ccc(F)cc1)N/N=C/c1cc(Br)ccc1OCc1ccccc1 | – | inconclusive: 3.55 µM [inhibitor, single point] |
| Cc1ccccc1C(=O)Nc1ccc(-c2nc3ccc(C(=O)c4ccccc4)cc3[nH]2)cc1 | – | inconclusive: 1.78 µM [inhibitor, full curve, poor fit] |
| O=C(NCC1CCCN1S(=O)(=O)c1ccccc1)C(=O)NC1CC1 (stereo not drawn) | – | inconclusive: 39.8 µM [inhibitor, single point] |
| O=C1CCC(C(=O)N2CCSCC2)CN1CCc1cccc(F)c1 (stereo not drawn) | inactive: -13.2% | – |
| CCCCn1c(CN2CCN(CCO)CC2)nc2ccccc21 | – | inconclusive: 0.282 µM [inhibitor, full curve, poor fit] |
| CN(C(=O)COc1cc(=O)n(C)c2ccccc12)c1ccc(Br)cc1 | – | inconclusive: 10 µM [inhibitor, partial curve, poor fit] |
| CC1CCN(C(=O)C(Cc2ccccc2)n2cccc2)CC1 (stereo not drawn) | – | active: 10 µM |
| CC1=C(C(=O)Nc2cc(-c3cccc(F)c3)[nH]n2)C2(CCCCC2)OC1=O | – | inconclusive: 100 µM [inhibitor, partial curve, poor fit] |
| CC1(C)S[C@@H]2[C@H](NC(=O)COc3ccccc3)C(=O)N2C1C(=O)OCc1cc2ccccc2n1S(=O)(=O)c1ccccc1 (stereo partly drawn) | – | active: 8.91 µM |
| COC(=O)c1c(NC(=O)COC(=O)c2ccc(NC(=O)CC#N)cc2)sc2c1CCCCC2 | – | active: 31.6 µM |
| COC(=O)C1=C(C)NC(=S)NC1c1ccc(-c2cccc(Cl)c2)o1 (stereo not drawn) | – | inconclusive: 3.98 µM [inhibitor, full curve, poor fit] |
| CCOC(=O)C1=NN(C(=O)Nc2ccc(OC)cc2)C2C(=O)N(c3cccc(C(F)(F)F)c3)C(=O)C12 (stereo not drawn) | – | inconclusive: 4.47 µM [inhibitor, single point] |
| Cc1onc(-c2ccccc2)c1C(=O)OCCOc1ccc([N+](=O)[O-])cc1[N+](=O)[O-] | – | inconclusive: 31.6 µM [inhibitor, single point] |
| Nc1nc2n(n1)C(c1cccc(Br)c1)CC(c1ccccc1)N2 (stereo not drawn) | – | inconclusive: 44.7 µM [inhibitor, partial curve, poor fit] |
| CCN(CCCNS(=O)(=O)c1cc(-c2cc(C)no2)ccc1C)Cc1ccccc1 | inactive: 32.1% | – |
| CC(=O)C1=C(C)NC(SCC(=O)Nc2nccs2)=C(C#N)C1c1ccccc1Cl (stereo not drawn) | – | inconclusive: 20 µM [inhibitor, partial curve] |
| COc1cc(OC)cc(C(=O)N[C@H](C(=O)OCC(=O)Nc2ccc(F)c(F)c2F)C(C)C)c1 | inactive: 15.4% | – |
| Cc1ccc(C)c(N2CCN(CCCNC(=O)Cn3cc4c(n3)CCCCC4)CC2)c1 | – | inconclusive: 5.01 µM [inhibitor, full curve, poor fit] |
| C/C(=N\NC(=O)c1nnn(-c2nonc2N)c1CN(C)c1ccccc1)c1ccc(O)cc1 | – | active: 25.1 µM |
| Cc1cc(C)c(S(=O)(=O)/N=C2/C=C(SCC(=O)O)C(=O)c3ccccc32)cc1C | – | active: 15.8 µM |
